The assay relates to NCI-H322M lung. The assay is described as follows: inhibition of tumour cell growth, NCI panel, 48 h.

“And” between values parts separate entries of the source, which are not always exact repeats. Identical values can stand only once.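 A five-concentration, 48-hour dose response in 96-well plates underlies each endpoint, interpolated linearly between surrounding concentrations. Here, GI50 denotes the concentration required for 50% inhibition of growth. TGI: total growth inhibition.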

Regarding `COc1ccc(C(=O)Cc2cc(OC)ccc2OC)cc1`, the TGI is > 100 µM.
Regarding `Oc1c2cccc1Cc1cccc3c1OCCOCCOCCOCCOc1c(cccc1Cc1cccc(c1O)C3)C2`, the TGI is > 100 µM.
Regarding `CCCC/C(=N\N=C(N)N)c1ccc(F)cc1`, the GI50 was 5.91 µM and the TGI is 19 µM.
For the compound `CCOP(=O)(OCC)/C(C#N)=C\c1cccc2ccccc12`, the TGI was > 100 µM.
For the compound `CCCCc1ccc2[n+](c1)C(C(=O)OCC)=PC2` (centres undefined), the TGI was > 100 µM.
Consider `COc1ccccc1C(=O)c1cnc(NC2CCN(S(C)(=O)=O)CC2)nc1N`, for which the GI50 was 9.41 µM and the TGI was > 25 µM.
As for `CCOC(=O)c1[nH]c2c(c1C)-c1[nH]c(=O)c(S(=O)(=O)c3ccccc3)cc1SC2`, the GI50 is 32.2 µM and the TGI is > 100 µM.
For the compound `Cc1cnc(Cl)nc1C(C#N)c1nc2ccccc2n1C` (centres undefined), the TGI is > 100 µM.
Take `N#Cc1c(N)c(-c2ccc(Cl)cc2)c(F)c2ccccc12`: the TGI is > 100 µM.
`O=c1c2ccccc2nc(-c2ccccc2)n1NCC1(O)OCC(O)C(O)C1O` (centres undefined): the TGI is > 100 µM.
Still for that read-out and setting: as for `Brc1ccc2c(c1)C1(c3cc(Br)ccc3-2)c2cc(Br)ccc2-c2ccc(Br)cc21`, the figure is > 100 µM.
As to `C/C(=C(/c1ccc(O)cc1)c1ccc(OCCN2CCCC2)cc1)c1ccccc1`, the GI50 was 5.12 µM and the TGI stood at 18.6 µM.
For the compound `COc1ccc(CNc2nc(NCc3ccc(OC)cc3)nc(NC3CCCCC3)n2)cc1`, the TGI is 4.89 µM.
Turning to `CC1(CC(=O)O)OC2CCCCCC2O1` (centres undefined) (tested in a mixture with another compound), the TGI is > 100 µM.
`COc1ccc(C[C@H]2C[C@@H](O)[C@@H](C)C/C=C/Cc3cccc(O)c3C(=O)O2)cn1`: the GI50 was 27.3 µM and the TGI worked out at 93.3 µM.
`COc1ccc(S(=O)(=O)N/N=C/C(=O)O)cc1`: the TGI was > 1250 µM.
The same measure, in the same setting: the result for `Cc1c(C(C)C)cc(OCCO)cc1C(C)C` reads > 100 µM; that for `CCOC(=O)c1cc(-c2ccc(OC)c(OC)c2)c[nH]1`, > 10 µM; that for `N#Cc1c2c(c(N=[N+]=[N-])n3c1nc1ccccc13)CCCC2`, 25.7 µM.
For `Cc1ccc(S(=O)(=O)C(C#N)c2nc3ccccc3nc2-n2cccn2)cc1` (centres undefined), the TGI is > 100 µM.
Regarding `CN(C)CCCn1c2ccccc2c2cnccc21`, the TGI was > 100 µM.
On the same count and under the same terms, the result for `Oc1cc2cc(-c3ccccc3)[nH]c2c2ccccc12` reads > 100 µM.
`CC1(C)CC(=O)C(/C=N/c2nc(-c3ccc(Br)cc3)cs2)=C(O)C1`: the TGI is > 100 µM.
Regarding `c1ccc2c3c(ccc2c1)CSCc1ccc2ccccc2c1-3`, the TGI is > 100 µM.
With `Cc1cc(S(=O)(=O)Nc2n[nH]c(Nc3ccccc3)n2)c(S)cc1Cl`, the TGI is > 10 µM.
The same measure, in the same setting: the result for `COc1ccc2cccc(C(=N)c3ccc(C)c4c3CCC4)c2c1` reads 24.5 µM; that for `Cc1cc(NS(=O)(=O)c2ccc(Nc3c4ccccc4nc4c(C(=O)NCCN(C)C)ccc(Cl)c34)cc2)no1`, 18.2 µM.
Take `CC(C)OP(=O)(CP(=O)(OC(C)C)OC(C)C)OC(C)C.[CH3][Sn]([Br])([Br])[Br]`: the GI50 is > 100 µM and the TGI is > 100 µM.
On to `c1ccc2c(c1)CC1c3[nH]c4ccccc4c3CCN21` (centres undefined), for which the TGI was > 10 µM.
Turning to `O=[N+]([O-])c1ccc2nc3ccc([N+](=O)[O-])cn3c2c1`, the TGI was > 100 µM.
For the compound `O=C1C=C(Nc2cccc(Br)c2)c2ccccc2C1=O`, the GI50 is 4.88 µM and the TGI was > 100 µM.
Consider `O=C1CCC2(CCC(=O)NC2=O)C(=O)N1`, for which the TGI was > 100 µM.
Regarding `CC[C@]12C=CCN3CC[C@]4(C(=C(C(=O)OC)C1)Nc1cc(O)ccc14)[C@@H]32`, the GI50 is 18.1 µM and the TGI is 46.7 µM.
`CCOC(=O)c1c2c(n(C)c1-c1ccccc1)C(=O)C(C)=CC2=O` gave a TGI of 30.1 µM.
Consider `N#CC1c2ccccc2-c2ccccc2N1C(=O)c1ccccc1` (centres undefined), for which the GI50 is 3.43 µM and the TGI was > 57.6 µM.
For `O=C(c1cccs1)N(C(=S)N1CCN(c2ccccc2)CC1)c1ccccc1`, the TGI is > 100 µM.
`CO[C@H]1C=C[C@]23c4cc5c(cc4CN(CC2O)[C@@H]3C1)OCO5` (some centres undefined) displayed a TGI of 34.1 µM.
`CC1(C)OC[C@@H](/C=C\CCO[Si](c2ccccc2)(c2ccccc2)C(C)(C)C)N1C(=O)c1ccccc1`: the TGI is > 100 µM.
As to `Cc1cccc(NC(=O)CC(=O)N2N=C(N3c4ccccc4Sc4ccccc43)CC2c2ccccc2)c1` (centres undefined), the TGI was > 100 µM.
Take `COC(=O)C(CC=O)C(=O)C(=O)Nc1cccc(C(F)(F)F)c1` (centres undefined): the TGI was > 100 µM.
Turning to `CC1(C)N=C(N)N=C(N)N1c1ccc(OCC(=O)Nc2cccc(S(=O)(=O)F)c2)c(Cl)c1`, the TGI is > 87 µM.
With `CC1Cc2c(N(C)C)ncnc2N(C)c2ccc(Cl)cc21` (centres undefined), the GI50 is 5.13 µM and the TGI is > 100 µM.
As to `O=C1CCSSCCC(=O)Nc2ccccc2N1`, the TGI is > 100 µM.
In the case of `COc1ccc(/C=N/Nc2[nH]c(=S)nc3[nH]ncc23)cc1`, the TGI was 93.1 µM.
For `COc1ccc([Se]c2ccc(OC)cc2OC)c(OC)c1`, the TGI is > 100 µM.
As to `CCN(CC)CCC(=O)Nc1ccc(Cn2nnc3c2C(=O)c2nnn(Cc4ccc(NC(=O)CCN(CC)CC)cc4)c2C3=O)cc1`, the GI50 is 0.464 µM and the TGI was 1.51 µM.
Consider `Cc1cc(N(CCC#N)S(=O)(=O)c2ccccc2)ccc1C=O`, for which the TGI is > 100 µM.
For the compound `O=C1c2ccccc2NC2C(O)c3ccccc3N12` (centres undefined), the TGI is > 100 µM.
As to `O=C(Cc1nc2ccc(C(=O)c3ccccc3)cc2[nH]c1=O)C(=O)Nc1ccccc1[N+](=O)[O-]`, the TGI was > 100 µM.
With `Oc1cccc(-c2nc3ccccc3s2)c1`, the TGI is > 100 µM.
Turning to `O=c1[nH]c(=O)n(C2CC(O)C(CO)O2)cc1C#Cc1ccc(C(F)(F)F)cc1` (centres undefined), the TGI was > 100 µM.
Regarding `CCCCCCCCCCCCCCCC[N+]1(CC)CCCC1`, the GI50 was 1.75 µM and the TGI came to 4.36 µM.
`COc1cc[nH]c1/C=C1\C(=O)Nc2ccc(F)c(C#CC3(O)CCOCC3)c21`: the GI50 was 0.791 µM and the TGI is > 7.68 µM.
For `O=C(CCCCCCCCC(=O)OCC1OC(n2cnc3c(=O)[nH]cnc32)C(O)C1O)OCC1OC(n2cnc3c(=O)[nH]cnc32)C(O)C1O` (centres undefined), the TGI is > 100 µM.
As for `O=C1c2c(O)cccc2C(C(=O)CCCCC(=O)C2c3cccc(O)c3C(=O)c3c(O)cccc32)c2cccc(O)c21`, the GI50 is 1.45 µM; the TGI was 3.28 µM and 6.39 µM.
Consider `O=C(CCCCCCCCCCc1ccccc1)c1c(O)cccc1O`, for which the TGI amounted to 96.3 µM.
Take `Oc1ccc2ccccc2c1-c1nnc(CCCCCCCCc2nnc(-c3c(O)ccc4ccccc34)o2)o1`: the GI50 was 1.17 µM; the TGI is 14.2 µM and > 81.4 µM.
In the case of `CCOC(=O)C1C(c2cc(OC)c(O)c(OC)c2)c2cc3c(cc2OC1(C)O)OCO3` (centres undefined), the TGI was > 100 µM.
Take `COC(=O)/C(=N\NC(=O)c1ccccc1O)C(C#N)c1ccc(Cl)cc1` (centres undefined): the TGI was > 100 µM.
As for `Cc1ccc(NCSc2ccc(Cl)cc2)cc1`, the GI50 is 75.3 µM and the TGI is > 100 µM.
Turning to `COc1ccc(Cn2nc(OCc3ccccn3)c3cc([N+](=O)[O-])ccc32)cc1`, the TGI is > 100 µM.
Turning to `COc1ccc2c(c1O)[C@@]13C=C(O)C(=O)C=C1[C@@H](C2)N(C)CC3`, the TGI was > 100 µM.
Still for that read-out and setting: as for `CCN(CC)c1ccc(C(=C2C=CC(=[N+](CC)CC)C=C2)c2ccc(N(CC)CC)cc2)cc1`, the figure is 1.25 µM.

For the origin of these results see PubChem BioAssay (NCI).
